From PubChem BioAssay AID652104 (National Center for Advancing Translational Sciences (NCATS), 2013)
Out of some 410,000 compounds screened, about 7,200 (1.8%) were called active. The shares of active, inactive and inconclusive entries below differ from those in the screen. Calls come from the whole dose curve; as a rule, active = well fitted activation curve with a large enough effect; inconclusive = small, poorly fitted or top-dose-only effect, or another doubt; inactive = no such curve, though single readings can be large or run the other way. No potency is given beside an inconclusive call; the fits are too rough.

experiment: qHTS of TDP-43 Inhibitors; conditions: TDP-43 expressing yeast growth rescue, BacTiter-Glo, 24 h; growth rescue (activation): at 46.1 µM (top of the series) unless noted; note: nearly all actives have a fitted effect of over 50% in size; for growth rescue (activation): % of control where 0% means no effect
Method in brief: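 Growth rescue of TDP-43-toxic yeast measured as ATP luminescence (BacTiter-Glo). Cells grown to mid-log in raffinose, induced in galactose at OD600=0.02, exposed to compound 24 hr at 30 deg C.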
Potency is the fitted concentration of half-maximal effect; tags give direction and shape of the fitted curve.

Structure (SMILES)	Potency	growth rescue (activation)
O=C(CSc1nnc(Cc2ccccc2)o1)Nc1cccc(F)c1	inconclusive [activator, partial curve]	
COc1ccc(CC(=O)NC2CCSc3ccccc32)c(OC)c1 (stereo not given)	inconclusive [activator, single point]	
CCSc1ccc(-c2cccc([N+](=O)[O-])c2)nn1	inconclusive [activator, partial curve]	
CCc1cccc(NS(=O)(=O)c2ccc3c(c2)CC(C)N3C(=O)C2CC2)c1 (stereo not given)	inconclusive [activator, partial curve]	
COC(=O)CCCn1c(C)cc(C(=O)CCl)c1C	active: 20 µM	
COc1ccc(C(=O)c2c(NC(C)=O)sc3c2CCN(C(=O)OC(C)(C)C)C3)cc1	inconclusive [activator, single point]	
COc1ccccc1C(=O)NCc1nc2cccnc2n1Cc1ccc(F)cc1	inconclusive [activator, partial curve]	
Cn1c(/C(C#N)=C/c2ccccc2Br)nc2ccccc21	active: 11.2 µM	
COc1ccc(NC(=O)C2CSC3c4ccccc4C(=O)N23)cc1 (stereo not given)	inconclusive [activator, single point]	
Cc1cc(S(=O)(=O)N2CCCCCC2)c(Cl)cc1Cl	inconclusive [activator, partial curve]	
CN(CC(=O)Nc1cccc(F)c1)C(=O)c1sc2ccccc2c1Cl	inconclusive [activator, partial curve]	
COc1ccc(N=Nc2nc3ccc(Br)cc3n2C)cc1	active: 12.6 µM	
O=C(NC(=S)NCc1ccccc1)c1cccnc1		inactive: 3.17%
CCOc1ccccc1C(=O)Nc1nnc(CC)s1	inconclusive [activator, partial curve]	
COc1ccccc1/C=C/c1nc(C#N)c(NC2CCCCC2)o1		inactive: 16%
O=C1CC(N2CCCCCC2)C(=O)N1c1ccc2c(c1)OCO2 (stereo not given)		inconclusive: -93.5% [activator]
CNC(=O)/C(C#N)=C/c1c(F)cccc1Cl	inconclusive [activator, partial curve]	
CC(=O)NC(C)(c1ccccc1)c1nc(-c2ccc(F)c(Cl)c2)cs1 (stereo not given)	active: 11.2 µM	
COCCCNC(=S)N1CCCN(c2nc3cc(C)c(C)cc3cc2C#N)CC1	inconclusive [activator, single point]	
Cc1cc(C)n2nc(SCc3nnc(SCc4ccccc4C)s3)nc2n1	inconclusive [activator, single point]	
Cn1cccc1C(=O)NCc1ccc(Cl)cc1	inconclusive [activator, single point]	
Cc1ccccc1-n1nnnc1-c1ccccc1	inconclusive [activator, single point]	
COc1ccccc1Cc1c(-c2ccco2)nc2ccc(Cl)cn12	inconclusive [activator, single point]	
CCc1ccc(S(=O)(=O)c2cn(Cc3ccccc3)c3cc(N4CCCC4)c(F)cc3c2=O)cc1		inactive: 17%

Structure (SMILES)	Potency	growth rescue (activation)
C#Cc1ccc([C@H]2C=C(C(=O)Nc3ccccc3)O[C@@H](OCc3ccc(CO)cc3)C2)cc1	inconclusive [activator, partial curve]	
COc1ccccc1C(=O)OCC(=O)Nc1ccc(OC(F)F)cc1	inconclusive [activator, partial curve]	
CCOc1ccc(C(=O)NCc2ccccc2)cc1Br	inconclusive [activator, single point]	
O=C(Nc1ccc2c(c1)CCCN2C(=O)c1cccs1)c1ccc(F)c(F)c1		inactive: 24.8% [at 9.22 µM]
CCOc1ccccc1N1CCN(S(=O)(=O)c2cccc3nsnc23)CC1	inconclusive [activator, single point]	
COc1ccc(-c2cc(C(=O)N3CCCCC3C)no2)cc1OC (stereo not given)	inconclusive [activator, single point]	
COC(=O)c1cc(C#N)c(Oc2ccc(OC)cc2)nc1C	inconclusive [activator, partial curve]	
O=C(N1CCN(c2ccccn2)CC1)N1c2ccccc2Sc2ccccc21		inactive: -14.7%
CCC(=O)OC1=C(C(C)=O)N(Cc2ccccc2)S(=O)(=O)c2ccccc21	inconclusive [activator, single point]	
CC(NC(=O)c1cccs1)c1ccc(Cl)cc1 (stereo not given)	inconclusive [activator, single point]	
COc1cccc(/C=N/Nc2snc(SC)c2C#N)c1O		inactive: -11.3%
COc1ccccc1-c1nnc(NC(=O)c2ccc3ncsc3c2)o1	active: 11.2 µM	
CCN(Cc1ccccc1)c1ncnc2c1cnn2-c1ccc(F)cc1	active: 25.1 µM	
Cc1ccc(C2=CC(c3ccc(C)cc3)n3ncnc3N2)cc1 (stereo not given)	active: 15.8 µM	
CC1(OC(=O)c2ccco2)C(=O)C=C2C=C(C3CC3)OC=C2C1=O (stereo not given)	active: 11.2 µM	
CCOc1cc(NC(=O)C2CCCO2)c(OCC)cc1NC(=O)C1CC1 (stereo not given)	inconclusive [activator, partial curve, poor fit]	
O=C1OCCN1/N=C/c1ccc([N+](=O)[O-])o1	inconclusive [activator, partial curve]	
O=Cc1c(N2CCN(c3ccccc3)CC2)nc2ccccn2c1=O	inconclusive [activator, partial curve]	
Cc1onc(-c2ccccc2Cl)c1C(=O)OCn1nnc2ccccc2c1=O	inconclusive [activator, single point]	
CN(C(=O)CSc1nc(-c2ccccc2)no1)c1ccc(F)cc1	inconclusive [activator, partial curve]	
Cc1oc(C(C)(C)C)cc1C(=O)Nc1ccc(C(=O)O)cc1	inconclusive [activator, single point]	
CCOc1ccccc1NC(=O)CN(c1ccc(OC)c(OC)c1)S(=O)(=O)c1ccc(C)cc1	inconclusive [activator, partial curve]	
Cc1nc2ccc(-c3nc4cc(N)ccc4o3)cc2[nH]1	inconclusive [activator, partial curve, poor fit]	
Cc1cc(C)c(NC(=O)C2CCCO2)c(C)c1NC(=O)C1CCCO1 (stereo not given)		inactive: 1.96%

Structure (SMILES)	Potency	growth rescue (activation)
COc1ccc(Oc2ccccc2/C=N/O)cc1	inconclusive [activator, partial curve]	
Cc1ccc(Cl)cc1N1CCN(C(=O)c2noc(C(C)C)c2[N+](=O)[O-])CC1	inconclusive [activator, single point]	
Cc1cccnc1NC(=O)Cn1nc(-c2ccccc2)oc1=S	inconclusive [activator, partial curve]	
CCc1nc2ccc(C(=O)NCCCN(C)C)cn2c1N(CC)CCOC		inactive: 21.4%
COCCCNC(=O)c1cc2c(-c3cccc(OC)c3)nn(C)c2s1	inconclusive [activator, partial curve]	
COC(=O)c1ccc(CSc2nnc(NC(=O)c3cc4c(s3)CCCC4)s2)cc1		inactive: 9.97%
COc1cc2oc(=O)cc(CN3CCCC3)c2cc1Cl	inconclusive [activator, partial curve]	
CCCCc1ccc(NC(=O)C(C)CC)cc1 (stereo not given)	active: 11.2 µM	
COC(=O)C1=C(C)N(C(C)C)C(=O)C1(NC(=O)c1ccccc1OC)C(F)(F)F (stereo not given)	inconclusive [activator, partial curve]	
COC(=O)Cc1csc(Nc2ccc(F)c(Cl)c2)n1	inconclusive [activator, partial curve]	
CC1C(=O)N(Cc2cn(Cc3ccco3)nn2)CCS(=O)(=O)N1Cc1ccc(-c2ccc(Cl)c(Cl)c2)cc1 (stereo not given)	active: 35.5 µM	
O=C(CSc1nccn1Cc1ccc(F)cc1)Nc1nc2ccccc2s1	inconclusive [activator, single point]	
CCc1ccc(CNC(=O)CCc2c(C)nn(-c3ccc(N4CCCC4)nn3)c2C)cc1		inactive: -3.02%
COc1cc(NC(=O)C2=CC(c3ccc(F)cc3)=NS(=O)(=O)N2C)cc(OC)c1OC		inactive: 28.2%
CC(C)c1nnc(N2C(=O)c3oc4ccccc4c(=O)c3C2c2ccccc2F)s1 (stereo not given)	inconclusive [activator, partial curve, poor fit]	
CCOC(=O)CN1C(=O)S/C(=C/c2ccc(O)c([N+](=O)[O-])c2)C1=O	inconclusive [activator, partial curve]	
COc1cccc(-c2nn(-c3ccccc3)cc2C(=O)Nc2nccs2)c1	inconclusive [activator, single point]	
Cc1ccc(C(=O)Nc2nc(-c3ccccn3)cs2)cc1S(=O)(=O)N1CCOCC1	inconclusive [activator, partial curve]	
CC1(C(=O)NS(=O)(=O)c2cccc(F)c2)CCN1C(=O)C1(c2ccc(Cl)cc2)CCC1 (stereo not given)	inconclusive [activator, single point]	
CCOC(=O)c1c(C)n(-c2ccc(OC)cc2)c2ccc(OC(=O)COc3ccccc3)cc12		inactive: 17.2%
O=C(NC(=S)Nc1cccc2cc(O)ccc12)c1ccco1	inconclusive [activator, single point]	
COc1ccc2c(c1)C(=O)N(c1ccc(C)cc1C)C(=O)C2(C)C	inconclusive [activator, single point]	
